The source of these data is article PMC10668032.

The other results are listed elsewhere or left out. At the low end of the ranking, values are background and their order means little.

The target of this test is SIX1-Q177R homeodomain (UniProt Q15475). Kind of test: universal protein binding microarray. The following applies: Universal all-10-mer PBM (8x60K, AMADID 030236), 300 nM GST-tagged protein, Alexa Fluor 488 anti-GST; buffer, salt, pH and temperature not stated; high values mean tight binding; most listed sequences are background and not binding sites; double strand, one strand shown.
Take CCGTAATC: the binding signal is -0.0494 E-score.

Turning to TGAAAGAA, the binding signal was -0.223 E-score.

With ATGAAGCC, the binding signal is -0.111 E-score.

For the sequence GCCAAAAC, the binding signal is -0.22 E-score.

Take TGGGCCAA: the binding signal was -0.0936 E-score.

For CCTGAGAC, the binding signal is -0.0593 E-score.

On to AGCAGCAC, for which the binding signal is -0.12 E-score.

AAGACCGA: the binding signal was -0.163 E-score.

CGCGTACA: the binding signal worked out at 0.254 E-score.

As to GTAAAAGA, the binding signal is -0.0925 E-score.

As to GCCCCTAA, the binding signal is -0.167 E-score.

For AAAAGAGT, the binding signal worked out at 0.0435 E-score.

Take CACAACAA: the binding signal stood at 0.168 E-score.

Regarding AGTCTCCC, the binding signal is -0.167 E-score.

With CAGGACGA, the binding signal came out at 0.0688 E-score.

As for AAGACGGC, the binding signal is -0.121 E-score.

As to ATCCGCAG, the binding signal came out at 0.0691 E-score.

For GCCCATGA, the binding signal was -0.0591 E-score.

Regarding AACGTACC, the binding signal is 0.00034 E-score.

On to AATCTGCC, for which the binding signal is -0.121 E-score.

For CTTGCTGA, the binding signal is -0.0939 E-score.

Take ATGCACTC: the binding signal stood at 0.0795 E-score.

For the sequence GGAGAGTA, the binding signal came out at 0.116 E-score.

Regarding AAGCTCCT, the binding signal was -0.0694 E-score.

Turning to AGCATGTC, the binding signal is -0.164 E-score.

Regarding CAGCAGGA, the binding signal was -0.154 E-score.

In the case of CGAATCCA, the binding signal amounted to 0.0485 E-score.

In the case of CAAGCGAC, the binding signal turned out to be 0.082 E-score.

On to CGGCATAG, for which the binding signal was -0.107 E-score.

GCTTCCAC: the binding signal was -0.153 E-score.

For ACGTAAAC, the binding signal amounted to 0.00366 E-score.

CAGAAGGC: the binding signal was -0.134 E-score.

AACTACCA: the binding signal was -0.162 E-score.

Turning to ATCCTAGC, the binding signal is -0.00448 E-score.

As for AGGCACCT, the binding signal is -0.0237 E-score.

Consider AGTTCTGC, for which the binding signal was -0.347 E-score.

For GTGGCTTA, the binding signal is -0.25 E-score.

As for AGCCGCCT, the binding signal was -0.107 E-score.

As for ATATACCG, the binding signal came to 0.15 E-score.

Take AGCACTTA: the binding signal is -0.0453 E-score.

As to GCCACGCC, the binding signal was -0.107 E-score.

For TCGTAACA, the binding signal amounted to 0.0751 E-score.

Turning to CGTGCCGC, the binding signal amounted to 0.114 E-score.

As for CCAGGCTA, the binding signal amounted to 0.000525 E-score.

Take CACAGGCG: the binding signal came to 0.0231 E-score.

For ATCCGATG, the binding signal was -0.034 E-score.

For the sequence CAAACACC, the binding signal was 0.449 E-score.

For the sequence AGATTCCA, the binding signal is -0.12 E-score.

For the sequence AAACGTTC, the binding signal was -0.338 E-score.

For the sequence GTCGCCAA, the binding signal was -0.14 E-score.

For the sequence AATTACCT, the binding signal is -0.226 E-score.

For the sequence CCTTTACA, the binding signal was determined as 0.242 E-score.

As for CATTTTCA, the binding signal is -0.0252 E-score.

Regarding CTCCTCCC, the binding signal was -0.129 E-score.

Consider CAACTTTA, for which the binding signal was -0.249 E-score.

For the sequence ACGGAGAG, the binding signal was 0.0371 E-score.

As to CACTCCGC, the binding signal turned out to be 0.256 E-score.

On to CTCGGTTC, for which the binding signal was -0.0697 E-score.

With CAGCGTCC, the binding signal was 0.0331 E-score.

As for CCACCAGA, the binding signal amounted to 0.00421 E-score.

Consider GTGATAAA, for which the binding signal is -0.232 E-score.

Take CTGCATGA: the binding signal is -0.16 E-score.

Regarding ACGATGCG, the binding signal was -0.145 E-score.

On to ATTCGTTA, for which the binding signal is -0.203 E-score.

Turning to GCGGATAC, the binding signal came out at 0.268 E-score.

On to CCTTCGGA, for which the binding signal was -0.042 E-score.

Consider ATTTCGTG, for which the binding signal came to 0.122 E-score.

In the case of ACCGTTTG, the binding signal came to 0.0107 E-score.

For the sequence AGCGGCGG, the binding signal is -0.0867 E-score.

As for ATATCCGG, the binding signal was -0.0116 E-score.

On to AACGAGCT, for which the binding signal is -0.073 E-score.

Take CAATACAG: the binding signal was -0.0552 E-score.

For AAACCCTC, the binding signal was -0.00947 E-score.

For the sequence AGTGGAGG, the binding signal is -0.102 E-score.

As to AAGTTAGT, the binding signal was -0.0495 E-score.

With CTTTTGAC, the binding signal is -0.00078 E-score.

On to AGCCGACT, for which the binding signal was -0.0346 E-score.

Turning to TAGTGACA, the binding signal is 0.211 E-score.

As for AACAAAGC, the binding signal was -0.23 E-score.

Regarding CATCAGAA, the binding signal is -0.0815 E-score.

AGAAACCG: the binding signal came to 0.0383 E-score.

Consider AACGGACC, for which the binding signal is -0.0941 E-score.

Turning to ACAGGTAG, the binding signal was -0.0968 E-score.

CTCGACAC: the binding signal was found to be 0.419 E-score.

For AAACCAGT, the binding signal was -0.161 E-score.

GTGTTAGA: the binding signal amounted to 0.41 E-score.

In the case of GCTGAAAC, the binding signal is -0.0491 E-score.

With ATGAGCTA, the binding signal is -0.243 E-score.

AGTAACTA: the binding signal was -0.113 E-score.

With AGTGCTAA, the binding signal amounted to 0.0602 E-score.

As for ACTTGGAA, the binding signal was -0.0424 E-score.

On to CAGTGAGA, for which the binding signal is -0.243 E-score.

AGTCATTG: the binding signal is 0.0182 E-score.

Regarding CGTATAGC, the binding signal was -0.00682 E-score.

In the case of AACGCGAA, the binding signal is -0.0762 E-score.

As to ATCGATTG, the binding signal is -0.205 E-score.

CCACTTGA: the binding signal is 0.0543 E-score.

As for AGTGCCGC, the binding signal was -0.131 E-score.

As to CTGCGCTC, the binding signal was -0.136 E-score.

In the case of GGTGATAC, the binding signal was 0.313 E-score.

On to AAATAGCT, for which the binding signal is -0.294 E-score.

With CCGGCTTA, the binding signal amounted to 0.125 E-score.

In the case of CAACCCAG, the binding signal was 0.0495 E-score.

Turning to ATTGGTTG, the binding signal is -0.162 E-score.

As to AGAATAGG, the binding signal was -0.0721 E-score.

For GATCTTGA, the binding signal is -0.0532 E-score.

For CCGCTCAC, the binding signal was -0.00782 E-score.

In the case of AGCACTAC, the binding signal worked out at 0.0363 E-score.

With CCTTGCTC, the binding signal was -0.0168 E-score.

For AGTTGTAT, the binding signal stood at 0.115 E-score.

TGCTCCCA: the binding signal was 0.0563 E-score.

As for CTTATGCC, the binding signal came out at 0.0225 E-score.

CAGTTTTA: the binding signal was -0.204 E-score.

CACGGCCG: the binding signal was 0.188 E-score.

In the case of CGTAGTCA, the binding signal is -0.128 E-score.

On to ATATTGCG, for which the binding signal is -0.111 E-score.

Consider CACAGTTA, for which the binding signal was found to be 0.063 E-score.

For the sequence GGCTTCCC, the binding signal is -0.127 E-score.

On to AGGCCAGA, for which the binding signal is -0.127 E-score.

As for ACATCACA, the binding signal came to 0.116 E-score.

Regarding GGCCGTAC, the binding signal was found to be 0.115 E-score.

With AAAATTCA, the binding signal was -0.124 E-score.

Take CGTTTAGC: the binding signal was found to be 0.0763 E-score.

On to TGGGCAAA, for which the binding signal was -0.195 E-score.

Turning to AGTAGAGA, the binding signal was 0.00533 E-score.

Take CAGCTGAG: the binding signal was -0.0761 E-score.

As to ACCGCATC, the binding signal is 0.0177 E-score.

Take ACCATCCA: the binding signal turned out to be 0.215 E-score.

With AATTTATG, the binding signal is -0.0755 E-score.

As to CGGAGCAC, the binding signal amounted to 0.116 E-score.

As for ATTGACAC, the binding signal is 0.438 E-score.

With GGCAATAC, the binding signal was -0.123 E-score.

Take TCTGCACA: the binding signal worked out at 0.00479 E-score.

As to AGATGACG, the binding signal was -0.0955 E-score.

For AAGTCTTC, the binding signal was -0.289 E-score.

Consider TACCAAAA, for which the binding signal was -0.0799 E-score.

In the case of CTTCGTGA, the binding signal was -0.00836 E-score.

In the case of GATAACAC, the binding signal worked out at 0.433 E-score.

In the case of CCACCCAC, the binding signal came to 0.0993 E-score.

Regarding ATCGAGAC, the binding signal was -0.0448 E-score.

For the sequence GAGGCGCC, the binding signal was -0.238 E-score.

Regarding GAAGGAGA, the binding signal is -0.111 E-score.

Regarding CCTACCTC, the binding signal was -0.148 E-score.

With ACCCCCGC, the binding signal was 0.318 E-score.

Turning to ATATTTGG, the binding signal is -0.0639 E-score.

CATTACCC: the binding signal is 0.0884 E-score.

Turning to AATCCATA, the binding signal is -0.0257 E-score.

For the sequence GCGCCAAC, the binding signal was -0.0964 E-score.

In the case of ATGGGACA, the binding signal was 0.123 E-score.

For CACATCGC, the binding signal was -0.0298 E-score.

With CACTGTTC, the binding signal is 0.059 E-score.

Regarding AATGGCCA, the binding signal was -0.231 E-score.

With ACCTCCTC, the binding signal is 0.0431 E-score.

Regarding AAACTTGA, the binding signal was -0.244 E-score.

For TCCGCTAA, the binding signal was -0.0821 E-score.

In the case of CGGTTTGC, the binding signal was -0.197 E-score.

Regarding AGACGCGA, the binding signal was -0.00654 E-score.

As for CTAGAAAG, the binding signal is -0.0423 E-score.

ATGTCCTG: the binding signal was -0.291 E-score.

Consider AATAACAG, for which the binding signal is -0.128 E-score.

Consider AATGCTGC, for which the binding signal is -0.16 E-score.

Regarding ATTGAGAG, the binding signal was -0.0682 E-score.

In the case of GACGTGTA, the binding signal stood at 0.368 E-score.

Regarding CACCGCGC, the binding signal is 0.286 E-score.

On to ACAAATGA, for which the binding signal was -0.241 E-score.

CCCGCTAC: the binding signal amounted to 0.0698 E-score.

In the case of GGAGGCAA, the binding signal is -0.0709 E-score.

Turning to GCGTATGA, the binding signal turned out to be 0.0432 E-score.

GCTTATCC: the binding signal came out at 0.108 E-score.

In the case of ATAAACGC, the binding signal is -0.137 E-score.

For TATCGTCA, the binding signal is 0.211 E-score.

For the sequence CTTGGAGC, the binding signal is -0.13 E-score.
